The campaign covered roughly 150,000 compounds. About 540 (0.36%) showed an effect of 50% or more. Some of the results follow.

The experiment concerns Plasmodium falciparum. The experiment in a line: Primary screen in NF54 nanoGlo assay, in single point, at 2uM, 72h; a lower Z score goes with more inhibition. The experiment is classed as functional, Erythrocyte. The settings on record: timepoint 72 hour.
As for `Cc1nccn1CCC(=O)NC[C@H](C)Oc1cccnc1`, the “% Inhibition” value is reported as -7% and the Z score amounted to 0.93.

With `C=CCO[C@@H]1CCN2C(=O)c3cc(-c4cccc(C(F)(F)F)c4)ccc3NC(=O)[C@H]12`, the “% Inhibition” value was found to be 2% and the Z score is recorded as -0.32.

Regarding `COCc1nc(C(=O)Nc2nc(-c3cnn(C)c3)cs2)cs1`, the “% Inhibition” value stood at 29% and the Z score is -3.26.

Consider `Cc1c(C(=O)N(C)CC(C)C)cnn1-c1nccc(-c2ccc3c(c2)OCO3)n1`, for which the “% Inhibition” value was found to be 4% and the Z score is given as -0.49.

With `CC(C)c1nnc2ccc(NS(=O)(=O)c3ccc4c(c3)CC(=O)N4C)cn12`, the “% Inhibition” value is 2% and the Z score is given as -0.25.

On to `Cc1cccc(-n2nc(Cc3ccccc3)n(CC(=O)NC3CC3)c2=O)c1`, for which the “% Inhibition” value is on record as -11% and the Z score is given as 2.17.

With `CCN([C@H]1CCOC1)S(=O)(=O)c1ccc2c(c1)C(=O)CCC2`, the “% Inhibition” value is reported as -15% and the Z score worked out at 1.68.

Consider `NS(=O)(=O)c1ccc(F)c(CNC(=O)C(C2CC2)C2CC2)c1`, for which the “% Inhibition” value is listed as 5% and the Z score was -0.65.

Turning to `O=C(NCCc1cc(F)cc2c1OCOC2)[C@@H]1CC(c2ccccc2)=NO1`, the “% Inhibition” value was 2% and the Z score is recorded as -0.22.

With `O=C(C1CCCO1)N1CCCN(C2CCN(Cc3ccc(F)cc3)C2=O)CC1` (centres undefined), the “% Inhibition” value is 0% and the Z score is -0.03.

On to `FC(F)(F)c1cc(-c2ccccc2)nc(N2CCCC2)n1`, for which the “% Inhibition” value is -5% and the Z score worked out at 0.64.

Take `Cc1cc(C)n(NC(=O)[C@@H]2COc3ccccc3O2)c(=O)c1`: the “% Inhibition” value is -9% and the Z score was 1.21.

Turning to `Cc1ccccc1C(=O)N1[C@H](C(=O)NC2CC2)COC12CCN(C(=O)c1ccc(F)cc1)CC2`, the “% Inhibition” value is listed as -2% and the Z score amounted to 0.23.

In the case of `COc1ccc(NC(=O)Cn2nc3nc(N4CCC[C@H](C)C4)ccn3c2=O)cc1OC`, the “% Inhibition” value worked out at 2% and the Z score was -0.38.

In the case of `CCOc1ncccc1C(=O)NC1CCN(c2cc3c(nn2)CCCC3)CC1`, the “% Inhibition” value is reported as -18% and the Z score amounted to 3.

For the compound `Cc1c(Cl)cccc1CNC(=O)CCCN1CCCC1=O`, the “% Inhibition” value is recorded as -4% and the Z score is 0.61.

As for `O=C(c1cc2ccccc2[nH]1)N1CCC2(CC1)C[C@@H](Cc1cccc(F)c1)CCO2`, the “% Inhibition” value was -9% and the Z score amounted to 1.28.

As for `CC[C@@H](c1ccnn1C)n1cnc2cnccc2c1=O`, the “% Inhibition” value is given as -8% and the Z score amounted to 1.27.

On to `Cc1nc2ccccn2c1CN1CCC(CNC(=O)[C@@H]2CCc3ccccc32)CC1`, for which the “% Inhibition” value is 2% and the Z score is -0.48.

For the compound `Cn1nncc1C(=O)NC1(c2ccc(Br)cc2)CCCC1`, the “% Inhibition” value came to 2% and the Z score is recorded as -0.36.

Consider `CCc1nc2nnc3c(=O)n(-c4ccccc4C)ccc3n2n1`, for which the “% Inhibition” value stood at 3% and the Z score was -0.35.

Regarding `Fc1cccc2c1CCC[C@@H]2NCc1cncnc1`, the “% Inhibition” value is recorded as 2% and the Z score is -0.3.

On to `Cc1ccc(C2c3cc(OCC(=O)NCC4CCCO4)ccc3CCN2C(=O)C2CCCC2)cc1` (centres undefined), for which the “% Inhibition” value is -17% and the Z score came to 1.92.

Take `COCCc1noc(Cn2c(Cl)cccc2=O)n1`: the “% Inhibition” value is -9% and the Z score stood at 0.88.

For the compound `C[C@@H](c1nc(C2(c3ccc(F)cc3)CCC2)no1)n1cncn1`, the “% Inhibition” value is 2% and the Z score is given as -0.42.

Consider `CN(CC1(CO)CCCC1)C(=O)Nc1cccc(Cl)c1F`, for which the “% Inhibition” value was determined as 1% and the Z score was -0.16.

Regarding `CCCCS(=O)(=O)NCCCc1cc(C)no1`, the “% Inhibition” value is -15% and the Z score is on record as 2.26.

As for `CC(C)NC(=O)CN(C)CC(=O)Nc1cc(C2CCCC2)nn1-c1ccccc1`, the “% Inhibition” value was 1% and the Z score was -0.16.

As for `CC(CC1CCCN1C(=O)OC(C)(C)C)NCCNC(=O)c1ccccc1Cl` (centres undefined), the “% Inhibition” value is listed as -8% and the Z score is reported as 0.73.

As to `COc1cccc(C(=O)N2CCC3(CC2)C[C@@H](OCc2ccccc2)CCO3)c1`, the “% Inhibition” value is given as 31% and the Z score is given as -1.12.

Regarding `COc1ccc(C(=O)Nc2ccc3c(c2)C(=O)N2CCC[C@H]2C(O)=N3)cc1OC`, the “% Inhibition” value was found to be 23% and the Z score is given as -3.48.

Take `CC(C)(NC(=O)c1nc2ccccc2cc1C1CC1)c1nccs1`: the “% Inhibition” value was -15% and the Z score is 2.49.

As to `COc1cc(Br)cc(C)c1NC(=O)CCS(C)(=O)=O`, the “% Inhibition” value is reported as -4% and the Z score was found to be 0.49.

Take `CCOc1ccc(CNC(=O)C2CCN(c3ccc(-c4cccc(C)c4)nn3)CC2)cc1OCC`: the “% Inhibition” value is listed as -10% and the Z score was 1.29.

On to `CCO[C@H]1COC[C@@H]1NC(=O)Cc1cccs1`, for which the “% Inhibition” value amounted to 1% and the Z score was -0.18.

As to `CCOc1ccc(S(=O)(=O)N2CCc3cc(S(=O)(=O)N4CCCC4)ccc32)cc1OCC`, the “% Inhibition” value is listed as -11% and the Z score was 1.69.

As for `CC(C)(C)OC(=O)NCCc1cc(=O)[nH][nH]1`, the “% Inhibition” value is reported as -5% and the Z score is reported as 0.68.

`CC[C@@H](Cc1ccccc1)N(C)S(C)(=O)=O`: the “% Inhibition” value stood at 1% and the Z score is on record as -0.16.

For the compound `CCN1CCN(C(=O)Cn2nc(-c3ccccc3)c3ccccc32)CC1`, the “% Inhibition” value is listed as -4% and the Z score is listed as 0.68.

`CC(C)Cc1nsc(NCCS(N)(=O)=O)n1`: the “% Inhibition” value was -12% and the Z score came to 1.61.

For the compound `CN1C[C@@H](C(=O)N2CCC(c3nccn3CC3CC3)CC2)NC1=O`, the “% Inhibition” value amounted to 3% and the Z score is -0.57.

Take `COc1ccccc1CNCC1CN(C(=O)OC(C)(C)C)C1`: the “% Inhibition” value is reported as -1% and the Z score is recorded as 0.16.

Values taken from ChEMBL document CHEMBL4888484, “Replenishing the malaria drug discovery pipeline: Screening and hit evaluation of the MMV Hit Generation Library 1 (HGL1) against asexual blood stage Plasmodium falciparum ,using a nano luciferase reporter read-out” (2022).
